This note sets out measurements from the supplement of paper PMC11125491.

B1: UniProt A0EPZ9; numbered along this chain (parent)
chain: MDWQKSLTLIVALTLSRGIGLKNDLPWKLKSDMMFFSRVTSGLLVTRSTGQMNVVLMGRKTWESLPAHSRPLKNRINVVISRQEVLDLGGGAYHARSLDDALALLSQIYDSTSKIQLNRVFVIGGGELCKAAMEHSRLNRIIATVIHNEVDCDVFFPIDFRSSQSCLPWRKQDHSVLEAWVGSKVPQGKINENGFIYEFEMWIRDI

Variants of B1 are the subject of this data set. Kind of data set: selection coefficient against synonymous wild-type codons (log2 per generation); higher = faster growth than wild type. The note with it: with Saccharomyces cerevisiae carrying the variant on a plasmid. As for the experimental part:
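Pooled growth of yeast carrying single-residue variants of P. jirovecii dihydrofolate reductase (own DFR1 gene intact), two passages at 30 °C, three cultures, sequenced before and after. Codons with under 15 starting reads are left out; codons of one change are averaged.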

± gives the standard deviation of the averaged measurements. Growth of baker's yeast expressing single-residue variants of Pneumocystis jirovecii dihydrofolate reductase in 8.8 or 44 µM methotrexate (about 75% and 90% inhibition of the wild type). Selection coefficient per generation; 0 = like wild type, above 0 = less sensitive, below 0 = more sensitive or loss of function. No active / inactive call per row; the paper calls resistant above 0.220 (8.8 µM) or 0.243 (44 µM) together with a significance test. At 44 µM about 15% of codons end with one read or none, so the lowest values are floors (replicate rank correlation 0.74; 0.94 at 8.8 µM).

G90V: the “selection coefficient against synonymous wild-type codons (log2)” value (from here on “selection coefficient … (log2)”) is -0.187 ± 0.069 (methotrexate 8.8 µM) and -0.0794 ± 0.15 (methotrexate 44 µM).

Turning to W169N, the “selection coefficient … (log2)” value (methotrexate 8.8 µM) was -0.425 ± 0.16 and the “selection coefficient … (log2)” value (methotrexate 44 µM) was -0.13 ± 0.0069.

Take W169H: the “selection coefficient … (log2)” value (methotrexate 8.8 µM) is -0.341 ± 0.14 and the “selection coefficient … (log2)” value (methotrexate 44 µM) is -0.357 ± 0.029.

Consider V185A, for which the “selection coefficient … (log2)” value is -0.0252 ± 0.028 (methotrexate 8.8 µM) and -0.02 ± 0.086 (methotrexate 44 µM).

With T40N, the “selection coefficient … (log2)” value is -0.512 ± 0.055 (methotrexate 8.8 µM) and -0.349 ± 0.062 (methotrexate 44 µM).

As for T40G, the “selection coefficient … (log2)” value was -0.529 ± 0.12 (methotrexate 8.8 µM) and -0.245 ± 0.1 (methotrexate 44 µM).

Take S31R: the “selection coefficient … (log2)” value (methotrexate 8.8 µM) was -0.0108 ± 0.045 and the “selection coefficient … (log2)” value (methotrexate 44 µM) is -0.0171 ± 0.09.

For the variant L15C, the “selection coefficient … (log2)” value runs as follows: (methotrexate 8.8 µM) 0.0967 ± 0.021; (methotrexate 44 µM) 0.116 ± 0.057.

In the case of L15R, the “selection coefficient … (log2)” value is 0.388 ± 0.17 (methotrexate 8.8 µM) and 0.358 ± 0.21 (methotrexate 44 µM).

As to K189G, the “selection coefficient … (log2)” value reads like this: (methotrexate 8.8 µM) -0.0924 ± 0.029; (methotrexate 44 µM) -0.147 ± 0.12.

For G194T, the “selection coefficient … (log2)” value by setting is: (methotrexate 8.8 µM) -0.246 ± 0.1; (methotrexate 44 µM) -0.193 ± 0.035.

As to Y93S, the “selection coefficient … (log2)” value was -0.587 ± 0.14 (methotrexate 8.8 µM) and -0.184 ± 0.34 (methotrexate 44 µM).

On to Y93D, for which the “selection coefficient … (log2)” value reads like this: (methotrexate 8.8 µM) -0.681 ± 0.078; (methotrexate 44 µM) -0.265 ± 0.044.

Consider Y93R, for which the “selection coefficient … (log2)” value is, setting by setting: (methotrexate 8.8 µM) -0.457 ± 0.12; (methotrexate 44 µM) -0.256 ± 0.074.

As for Y93L, the “selection coefficient … (log2)” value runs as follows: (methotrexate 8.8 µM) -0.0167 ± 0.038; (methotrexate 44 µM) 0.00584 ± 0.058.

On to I142P, for which the “selection coefficient … (log2)” value is -0.745 ± 0.1 (methotrexate 8.8 µM) and -0.232 ± 0.1 (methotrexate 44 µM).

Consider L25K, for which the “selection coefficient … (log2)” value (methotrexate 8.8 µM) was -0.561 ± 0.15 and the “selection coefficient … (log2)” value (methotrexate 44 µM) is -0.33 ± 0.066.

Take L25Y: the “selection coefficient … (log2)” value reads like this: (methotrexate 8.8 µM) -0.113 ± 0.04; (methotrexate 44 µM) -0.175 ± 0.14.

Regarding R137M, the “selection coefficient … (log2)” value (methotrexate 8.8 µM) amounted to 0.00973 ± 0.033 and the “selection coefficient … (log2)” value (methotrexate 44 µM) is -0.0165 ± 0.12.

L102T: the “selection coefficient … (log2)” value by setting is: (methotrexate 8.8 µM) -0.69 ± 0.16; (methotrexate 44 µM) -0.208 ± 0.13.

For the variant W62E, the “selection coefficient … (log2)” value (methotrexate 8.8 µM) is -0.574 ± 0.048 and the “selection coefficient … (log2)” value (methotrexate 44 µM) was -0.327 ± 0.035.

For P186D, the “selection coefficient … (log2)” value runs as follows: (methotrexate 8.8 µM) -0.185 ± 0.12; (methotrexate 44 µM) -0.109 ± 0.32.

With P186G, the “selection coefficient … (log2)” value is, setting by setting: (methotrexate 8.8 µM) -0.226 ± 0.059; (methotrexate 44 µM) -0.293 ± 0.14.

As to E149G, the “selection coefficient … (log2)” value was 0.0182 ± 0.043 (methotrexate 8.8 µM) and -0.131 ± 0.16 (methotrexate 44 µM).

Take F156R: the “selection coefficient … (log2)” value by setting is: (methotrexate 8.8 µM) -0.406 ± 0.081; (methotrexate 44 µM) -0.271 ± 0.11.

As to F156S, the “selection coefficient … (log2)” value (methotrexate 8.8 µM) was found to be 0.634 ± 0.047 and the “selection coefficient … (log2)” value (methotrexate 44 µM) is 0.771 ± 0.044.

Regarding L105D, the “selection coefficient … (log2)” value (methotrexate 8.8 µM) was -0.578 ± 0.047 and the “selection coefficient … (log2)” value (methotrexate 44 µM) is -0.12 ± 0.064.

Regarding V55H, the “selection coefficient … (log2)” value is -0.312 ± 0.054 (methotrexate 8.8 µM) and -0.0641 ± 0.036 (methotrexate 44 µM).

In the case of E178S, the “selection coefficient … (log2)” value (methotrexate 8.8 µM) is -0.137 ± 0.059 and the “selection coefficient … (log2)” value (methotrexate 44 µM) was -0.23 ± 0.15.

Take A101Y: the “selection coefficient … (log2)” value by setting is: (methotrexate 8.8 µM) -0.685 ± 0.064; (methotrexate 44 µM) -0.182 ± 0.013.

Take W3K: the “selection coefficient … (log2)” value (methotrexate 8.8 µM) came to 0.265 ± 0.01 and the “selection coefficient … (log2)” value (methotrexate 44 µM) amounted to 0.269 ± 0.0099.

As for H147N, the “selection coefficient … (log2)” value was -0.0764 ± 0.016 (methotrexate 8.8 µM) and -0.0771 ± 0.12 (methotrexate 44 µM).

With H147W, the “selection coefficient … (log2)” value is -0.196 ± 0.1 (methotrexate 8.8 µM) and -0.344 ± 0.081 (methotrexate 44 µM).

For H147L, the “selection coefficient … (log2)” value (methotrexate 8.8 µM) was -0.206 ± 0.17 and the “selection coefficient … (log2)” value (methotrexate 44 µM) is -0.173 ± 0.29.

With H147S, the “selection coefficient … (log2)” value (methotrexate 8.8 µM) was -0.0106 ± 0.046 and the “selection coefficient … (log2)” value (methotrexate 44 µM) is -0.0612 ± 0.11.

For the variant P157R, the “selection coefficient … (log2)” value reads like this: (methotrexate 8.8 µM) -0.282 ± 0.077; (methotrexate 44 µM) -0.296 ± 0.1.

On to I146V, for which the “selection coefficient … (log2)” value amounted to 0.0651 ± 0.039 (methotrexate 8.8 µM) and 0.0348 ± 0.073 (methotrexate 44 µM).

With I146N, the “selection coefficient … (log2)” value was found to be 0.532 ± 0.1 (methotrexate 8.8 µM) and 0.702 ± 0.084 (methotrexate 44 µM).

Regarding P71D, the “selection coefficient … (log2)” value is, setting by setting: (methotrexate 8.8 µM) -0.0248 ± 0.059; (methotrexate 44 µM) 0.157 ± 0.15.

Turning to P71W, the “selection coefficient … (log2)” value is, setting by setting: (methotrexate 8.8 µM) 0.0889 ± 0.029; (methotrexate 44 µM) 0.154 ± 0.056.

On to M57A, for which the “selection coefficient … (log2)” value (methotrexate 8.8 µM) was -0.48 ± 0.13 and the “selection coefficient … (log2)” value (methotrexate 44 µM) is -0.274 ± 0.094.

With D87G, the “selection coefficient … (log2)” value is -0.259 ± 0.028 (methotrexate 8.8 µM) and -0.183 ± 0.093 (methotrexate 44 µM).

Turning to D87H, the “selection coefficient … (log2)” value is, setting by setting: (methotrexate 8.8 µM) -0.171 ± 0.022; (methotrexate 44 µM) -0.192 ± 0.16.

D87N: the “selection coefficient … (log2)” value is -0.0858 ± 0.052 (methotrexate 8.8 µM) and -0.024 ± 0.034 (methotrexate 44 µM).

For G58R, the “selection coefficient … (log2)” value (methotrexate 8.8 µM) was -0.519 ± 0.083 and the “selection coefficient … (log2)” value (methotrexate 44 µM) is -0.271 ± 0.098.

As to G58S, the “selection coefficient … (log2)” value reads like this: (methotrexate 8.8 µM) -0.282 ± 0.13; (methotrexate 44 µM) -0.225 ± 0.19.

As to V78L, the “selection coefficient … (log2)” value is, setting by setting: (methotrexate 8.8 µM) -0.534 ± 0.089; (methotrexate 44 µM) -0.102 ± 0.13.

For the variant V78G, the “selection coefficient … (log2)” value runs as follows: (methotrexate 8.8 µM) -0.683 ± 0.12; (methotrexate 44 µM) -0.249 ± 0.049.

Turning to P66M, the “selection coefficient … (log2)” value (methotrexate 8.8 µM) is -0.185 ± 0.12 and the “selection coefficient … (log2)” value (methotrexate 44 µM) is -0.0842 ± 0.095.

As to S16V, the “selection coefficient … (log2)” value by setting is: (methotrexate 8.8 µM) -0.0474 ± 0.094; (methotrexate 44 µM) -0.0863 ± 0.15.

Regarding S16Q, the “selection coefficient … (log2)” value by setting is: (methotrexate 8.8 µM) 0.0506 ± 0.016; (methotrexate 44 µM) 0.0253 ± 0.21.

For the variant K5E, the “selection coefficient … (log2)” value runs as follows: (methotrexate 8.8 µM) -0.00561 ± 0.053; (methotrexate 44 µM) 0.0804 ± 0.009.

With K5R, the “selection coefficient … (log2)” value runs as follows: (methotrexate 8.8 µM) -0.0842 ± 0.084; (methotrexate 44 µM) -0.148 ± 0.13.

Regarding K5A, the “selection coefficient … (log2)” value by setting is: (methotrexate 8.8 µM) 0.211 ± 0.11; (methotrexate 44 µM) 0.234 ± 0.084.

For the variant A103Q, the “selection coefficient … (log2)” value runs as follows: (methotrexate 8.8 µM) 0.0654 ± 0.022; (methotrexate 44 µM) 0.058 ± 0.025.

Turning to A103R, the “selection coefficient … (log2)” value was -0.00984 ± 0.026 (methotrexate 8.8 µM) and 0.0621 ± 0.083 (methotrexate 44 µM).

For the variant A103C, the “selection coefficient … (log2)” value is -0.182 ± 0.041 (methotrexate 8.8 µM) and -0.112 ± 0.074 (methotrexate 44 µM).

Consider G20W, for which the “selection coefficient … (log2)” value (methotrexate 8.8 µM) is -0.602 ± 0.12 and the “selection coefficient … (log2)” value (methotrexate 44 µM) was -0.305 ± 0.12.
